Test results as given in the antibiotic and cytotoxicity screens of Wong et al. (2023).
This is one part of the list.

system: HSkMC (human skeletal muscle cells); test: cytotoxicity call (relative viability < 0.9); conditions: 10 µM

Compound | cytotoxicity call
O=C(O)C[C@H]1CSc2nccc(=O)n21 | inactive
C[C@@H]1CCCCO[C@H](CN(C)C(=O)Nc2ccc(C(F)(F)F)cc2)[C@H](C)CN([C@@H](C)CO)C(=O)c2cc(NS(=O)(=O)c3cccs3)ccc2O1 | inactive
C[C@@H]1CN([C@@H](C)CO)C(=O)c2cc(NS(=O)(=O)c3cn(C)cn3)ccc2O[C@H]1CN(C)Cc1ccncc1 | inactive
CO[C@@H](CN(C)C(=O)c1ccc2c(c1)OCO2)[C@@H](C)CN([C@H](C)CO)S(=O)(=O)c1ccc(C)cc1 | inactive
CO[C@@H]1CN(C)C(=O)c2ccc(NS(C)(=O)=O)cc2OC[C@@H](C)N(C(=O)CN(C)C)C[C@@H]1C | inactive
C[C@@H]1CCCCO[C@H](CN(C)C(=O)c2ccccc2)[C@@H](C)CN([C@H](C)CO)C(=O)c2cc(NC(=O)Cc3ccccc3)ccc2O1 | inactive
Cl.O=C1CN2Cc3c(ccc(Cl)c3Cl)N=C2N1 | inactive
COCC(=O)Nc1ccc2c(c1)C(=O)N(C)C[C@H](OC)[C@H](C)CN(Cc1cccc(F)c1)[C@@H](C)CO2 | inactive
CC(C)NC(=O)Nc1ccc2c(c1)C(=O)N([C@@H](C)CO)C[C@@H](C)[C@H](CN(C)C(=O)C1CCCCC1)OCCCC[C@H](C)O2 | inactive
C[C@H]1CN([C@@H](C)CO)C(=O)c2cccc(NS(=O)(=O)c3cn(C)cn3)c2O[C@H]1CN(C)S(=O)(=O)c1cn(C)cn1 | inactive
COc1ccccc1-c1ccc2c(c1)O[C@H](CN(C)C(=O)c1cccnc1)[C@@H](C)CN([C@H](C)CO)S2(=O)=O | inactive
Clc1ccccc1Nc1ccc(-c2ccncc2)s1 | inactive
Cc1ccc(C(=O)C(C)CN2CCCCC2)cc1.Cl (stereo not drawn) | inactive
CCC(=O)NO | inactive
C[C@H]1CN([C@@H](C)CO)C(=O)c2c(c3ccccc3n2C)-c2ccccc2CO[C@H]1CN(C)C(=O)NC1CCCCC1 | inactive
COCCN1C[C@@H]2CN(C(=O)c3cnn(C)c3)C[C@H]2C1=O | inactive
CC1C=CC=CC=CC=CC=CC=CC=CC(OC2OC(C)C(O)C(N)C2O)CC2OC(O)(CC(O)CC(O)C(O)CCC(O)CC(O)CC(=O)OC(C)C(C)C1O)CC(O)C2C(=O)O (stereo not drawn) | inactive
Nc1cc(-c2ccncc2)c[nH]c1=O | inactive
C[C@H]1CN([C@@H](C)CO)C(=O)c2cc(NS(=O)(=O)c3ccccc3)ccc2O[C@@H]1CN(C)S(=O)(=O)c1ccccc1 | inactive
C[C@H](CO)N1C[C@H](C)[C@@H](CN(C)S(=O)(=O)c2cn(C)cn2)Oc2ccc(NS(=O)(=O)c3ccccc3)cc2CC1=O | inactive
NC(=O)c1ccc2nc(-c3ccc(C4(N)CCC4)cc3)c(-c3ccccc3)n2n1 | inactive
C[C@@H]1CCCCO[C@@H](CN(C)Cc2ccc(C(=O)O)cc2)[C@@H](C)CN([C@@H](C)CO)C(=O)c2cc(NS(=O)(=O)c3ccc(Cl)cc3)ccc2O1 | inactive
Cn1c(=O)c2c(ncn2CC(=O)O)n(C)c1=O | inactive
NC/C(=C/F)CCc1ccc(F)cc1 | inactive
C[C@H](CO)N1C[C@H](C)[C@@H](CN(C)Cc2ccc(C(=O)O)cc2)OCCCC[C@H](C)Oc2ccc(NC(=O)Nc3ccc(F)cc3)cc2C1=O | inactive
C=CCN1C(C)=N[C@H]2C=C[C@H](NCCCO)[C@H]21 | inactive
Cc1cc(C)c(-c2ccc(NC(=O)[C@H](Cc3ccc(C(=O)NCCS(=O)(=O)O)cc3)c3ccc(-c4ccc(C(C)(C)C)cc4)cc3)cc2)c(C)c1 | active
O=C(C[C@@H]1C[C@H]2c3cc(NC(=O)C4CCOCC4)ccc3O[C@H]2[C@H](CO)O1)NCc1ccc2c(c1)OCO2 | inactive

system: HepG2; test: cytotoxicity call (relative viability < 0.9); conditions: 10 µM

Compound | cytotoxicity call
Cc1cccc(OC[C@@H](O)CN)c1 | inactive
CC(C)NC(=O)N(C)C[C@@H]1Oc2c(NC(=O)C3CCCCC3)cccc2C(=O)N([C@@H](C)CO)C[C@@H]1C | active
O=C(C[C@@H]1C[C@@H]2c3cc(NC(=O)C4CCOCC4)ccc3O[C@@H]2[C@@H](CO)O1)NCCN1CCCCC1 | inactive
COc1cccc(-c2cn(CC[C@H]3CC[C@@H](NC(=O)CN(C)C)[C@@H](CO)O3)nn2)c1 | inactive
COc1ccc(NC(=O)N(C)C[C@H]2Oc3ccc(NC(=O)Nc4cccc5ccccc45)cc3CC(=O)N([C@H](C)CO)C[C@H]2C)cc1 | inactive
C[C@H](CO)N1C[C@H](C)[C@@H](CN(C)C(=O)Nc2ccc3c(c2)OCO3)OCCCC[C@H](C)Oc2ccc(NC(=O)Nc3cccc4ccccc34)cc2C1=O | inactive
CC(C)NC(=O)N[C@@H]1C=C[C@@H](CC(=O)NCCCN(C)C)O[C@@H]1CO | inactive
O=C(C[C@@H]1C[C@@H]2c3cc(NC(=O)Cc4ccncc4)ccc3O[C@@H]2[C@H](CO)O1)NCCc1ccccc1 | inactive
C[C@H]1CC=CC[C@H](c2ccc3c(c2)OCO3)NC(=O)[C@H](Cc2ccccc2)N(C)C(=O)c2ccccc2O1 | inactive
Cc1ccc(S(=O)(=O)Nc2ccc3c(c2)C(=O)N([C@@H](C)CO)C[C@H](C)[C@@H](CN(C)Cc2ccccc2)OCCCC[C@@H](C)O3)cc1 | inactive
C[C@@H]1CN([C@@H](C)CO)S(=O)(=O)c2ccc(Br)cc2O[C@H]1CN(C)C(=O)Cc1cccnc1 | inactive
C[C@@H]1CN([C@@H](C)CO)S(=O)(=O)c2ccc(C#Cc3cccnc3)cc2O[C@H]1CN(C)C(=O)Nc1ccc2c(c1)OCO2 | inactive
O=C(O)C[C@H]1CSc2nccc(=O)n21 | inactive
C[C@@H]1CCCCO[C@H](CN(C)C(=O)Nc2ccc(C(F)(F)F)cc2)[C@H](C)CN([C@@H](C)CO)C(=O)c2cc(NS(=O)(=O)c3cccs3)ccc2O1 | inactive
C[C@@H]1CN([C@@H](C)CO)C(=O)c2cc(NS(=O)(=O)c3cn(C)cn3)ccc2O[C@H]1CN(C)Cc1ccncc1 | inactive
CO[C@@H](CN(C)C(=O)c1ccc2c(c1)OCO2)[C@@H](C)CN([C@H](C)CO)S(=O)(=O)c1ccc(C)cc1 | inactive
CO[C@@H]1CN(C)C(=O)c2ccc(NS(C)(=O)=O)cc2OC[C@@H](C)N(C(=O)CN(C)C)C[C@@H]1C | inactive
C[C@@H]1CCCCO[C@H](CN(C)C(=O)c2ccccc2)[C@@H](C)CN([C@H](C)CO)C(=O)c2cc(NC(=O)Cc3ccccc3)ccc2O1 | inactive
Cl.O=C1CN2Cc3c(ccc(Cl)c3Cl)N=C2N1 | active
COCC(=O)Nc1ccc2c(c1)C(=O)N(C)C[C@H](OC)[C@H](C)CN(Cc1cccc(F)c1)[C@@H](C)CO2 | inactive

Compound | cytotoxicity call
CC(C)NC(=O)Nc1ccc2c(c1)C(=O)N([C@@H](C)CO)C[C@@H](C)[C@H](CN(C)C(=O)C1CCCCC1)OCCCC[C@H](C)O2 | inactive
C[C@H]1CN([C@@H](C)CO)C(=O)c2cccc(NS(=O)(=O)c3cn(C)cn3)c2O[C@H]1CN(C)S(=O)(=O)c1cn(C)cn1 | inactive
COc1ccccc1-c1ccc2c(c1)O[C@H](CN(C)C(=O)c1cccnc1)[C@@H](C)CN([C@H](C)CO)S2(=O)=O | inactive
Clc1ccccc1Nc1ccc(-c2ccncc2)s1 | inactive
Cc1ccc(C(=O)C(C)CN2CCCCC2)cc1.Cl (stereo not drawn) | inactive
CCC(=O)NO | inactive
C[C@H]1CN([C@@H](C)CO)C(=O)c2c(c3ccccc3n2C)-c2ccccc2CO[C@H]1CN(C)C(=O)NC1CCCCC1 | inactive
COCCN1C[C@@H]2CN(C(=O)c3cnn(C)c3)C[C@H]2C1=O | inactive
CC1C=CC=CC=CC=CC=CC=CC=CC(OC2OC(C)C(O)C(N)C2O)CC2OC(O)(CC(O)CC(O)C(O)CCC(O)CC(O)CC(=O)OC(C)C(C)C1O)CC(O)C2C(=O)O (stereo not drawn) | inactive
Nc1cc(-c2ccncc2)c[nH]c1=O | inactive
C[C@H]1CN([C@@H](C)CO)C(=O)c2cc(NS(=O)(=O)c3ccccc3)ccc2O[C@@H]1CN(C)S(=O)(=O)c1ccccc1 | inactive
C[C@H](CO)N1C[C@H](C)[C@@H](CN(C)S(=O)(=O)c2cn(C)cn2)Oc2ccc(NS(=O)(=O)c3ccccc3)cc2CC1=O | inactive
NC(=O)c1ccc2nc(-c3ccc(C4(N)CCC4)cc3)c(-c3ccccc3)n2n1 | inactive
C[C@@H]1CCCCO[C@@H](CN(C)Cc2ccc(C(=O)O)cc2)[C@@H](C)CN([C@@H](C)CO)C(=O)c2cc(NS(=O)(=O)c3ccc(Cl)cc3)ccc2O1 | inactive
Cn1c(=O)c2c(ncn2CC(=O)O)n(C)c1=O | inactive
NC/C(=C/F)CCc1ccc(F)cc1 | inactive
C[C@H](CO)N1C[C@H](C)[C@@H](CN(C)Cc2ccc(C(=O)O)cc2)OCCCC[C@H](C)Oc2ccc(NC(=O)Nc3ccc(F)cc3)cc2C1=O | inactive
C=CCN1C(C)=N[C@H]2C=C[C@H](NCCCO)[C@H]21 | inactive
Cc1cc(C)c(-c2ccc(NC(=O)[C@H](Cc3ccc(C(=O)NCCS(=O)(=O)O)cc3)c3ccc(-c4ccc(C(C)(C)C)cc4)cc3)cc2)c(C)c1 | active
O=C(C[C@@H]1C[C@H]2c3cc(NC(=O)C4CCOCC4)ccc3O[C@H]2[C@H](CO)O1)NCc1ccc2c(c1)OCO2 | inactive
